Measurements as given in PubChem BioAssay AID1347165 (National Center for Advancing Translational Sciences (NCATS), 2019).
The campaign covered roughly 220,000 compounds. About 5,700 (2.6%) were called active. Inconclusive means that the source gave no clear call. Such entries were picked first, then a sample of the others. Calls follow the shape of the dose curve; as a rule, active = well fitted inhibition curve with a large enough effect; inconclusive = small, poorly fitted or top-dose-only effect; inactive = no such curve, though single readings can be large or run the other way. Potencies beside an inconclusive call are fits to weak or partial responses and may not hold up.

target: Lysine-specific demethylase 5B (Homo sapiens) (UniProt Q9UGL1); test: Primary screen for KDM5B Histone Demethylases FDH-coupled qHTS; conditions: FDH-coupled NADH fluorescence (FDH is formaldehyde dehydrogenase); activity change, negative = inhibition: at 57.7 µM (top of the series) unless noted; also: nearly all actives have a fitted effect of over 70% in size; as to activity change, negative = inhibition: 0% is about no effect
In short: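 Coupled FDH/NAD⁺ fluorescence readout. KDM5BΔAP 200 nM final; compound titration, 10 min RT preincubation; substrate mix 12.5 µM H3K4me3, 25 µM 2-OG, 50 µM Fe(II), 100 µM ascorbate, 0.25 mM NAD⁺, 0.25 U/mL FDH; ΔRFU over 30 min.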
Potency is read from the fitted curve at half-maximal effect; tags tell the direction and shape of the fitted curve.

UniProt Q9UGL1, sequence (Q9UGL1 whole entry, looked up): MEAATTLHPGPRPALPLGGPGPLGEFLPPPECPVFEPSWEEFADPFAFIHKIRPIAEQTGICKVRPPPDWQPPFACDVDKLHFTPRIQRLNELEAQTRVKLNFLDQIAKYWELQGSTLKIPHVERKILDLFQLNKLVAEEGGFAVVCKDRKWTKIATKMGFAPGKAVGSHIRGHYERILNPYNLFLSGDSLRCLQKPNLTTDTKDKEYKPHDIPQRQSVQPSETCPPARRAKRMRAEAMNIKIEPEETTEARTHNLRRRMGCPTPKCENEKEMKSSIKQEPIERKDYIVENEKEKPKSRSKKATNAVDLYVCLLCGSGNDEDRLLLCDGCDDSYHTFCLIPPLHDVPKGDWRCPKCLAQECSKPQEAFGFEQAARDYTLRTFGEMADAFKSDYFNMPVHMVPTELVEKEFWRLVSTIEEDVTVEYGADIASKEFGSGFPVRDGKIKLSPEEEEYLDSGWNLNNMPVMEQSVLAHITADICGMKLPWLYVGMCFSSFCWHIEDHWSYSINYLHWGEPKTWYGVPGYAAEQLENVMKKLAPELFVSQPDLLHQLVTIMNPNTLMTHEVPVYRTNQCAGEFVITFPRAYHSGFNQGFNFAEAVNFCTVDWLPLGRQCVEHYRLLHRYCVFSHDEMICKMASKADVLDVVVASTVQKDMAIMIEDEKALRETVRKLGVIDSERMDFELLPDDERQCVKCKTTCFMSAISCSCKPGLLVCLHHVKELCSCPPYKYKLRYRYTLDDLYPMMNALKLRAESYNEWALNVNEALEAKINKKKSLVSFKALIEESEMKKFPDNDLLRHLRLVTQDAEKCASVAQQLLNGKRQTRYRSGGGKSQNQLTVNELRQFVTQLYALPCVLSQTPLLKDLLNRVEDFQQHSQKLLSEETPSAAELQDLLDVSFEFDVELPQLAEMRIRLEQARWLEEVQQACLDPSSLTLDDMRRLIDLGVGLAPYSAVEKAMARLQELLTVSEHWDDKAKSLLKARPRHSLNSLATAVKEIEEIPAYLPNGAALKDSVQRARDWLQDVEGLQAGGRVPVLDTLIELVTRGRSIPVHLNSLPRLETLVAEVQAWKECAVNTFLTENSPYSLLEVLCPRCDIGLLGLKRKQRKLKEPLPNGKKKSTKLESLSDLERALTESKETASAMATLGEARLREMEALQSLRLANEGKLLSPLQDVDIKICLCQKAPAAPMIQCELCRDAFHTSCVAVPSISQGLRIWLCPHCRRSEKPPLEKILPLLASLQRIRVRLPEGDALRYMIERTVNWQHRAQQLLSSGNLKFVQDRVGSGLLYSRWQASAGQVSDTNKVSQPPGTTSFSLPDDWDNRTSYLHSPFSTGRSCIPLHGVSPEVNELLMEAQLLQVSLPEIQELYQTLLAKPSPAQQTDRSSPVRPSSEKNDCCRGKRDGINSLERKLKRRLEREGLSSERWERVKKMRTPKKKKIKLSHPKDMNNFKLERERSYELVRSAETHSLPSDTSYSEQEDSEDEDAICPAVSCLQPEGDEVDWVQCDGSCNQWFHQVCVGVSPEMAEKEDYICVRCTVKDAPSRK

SMILES	activity change, negative = inhibition	Potency
COc1ccc(OC)c(C(C)NC(=O)Cc2cccs2)c1 (stereo unspecified)	inactive: 17.5%	–
Cn1cccc1CN1CC[C@@H]2C(=O)NCCCCCCN(Cc3ccncc3)[C@@H]2C1	–	inconclusive: 22.4 µM [inhibitor, partial curve, poor fit]
CC(=O)c1c(C)[nH]c(C(=O)COc2ccc(F)c(Cl)c2)c1C	inactive: 12.7%	–
O=C(CCC1CCCC1)NNC(=O)c1cc2ccccc2cc1O	–	inconclusive: 31.6 µM [inhibitor, partial curve, poor fit]
CSc1nnc(-c2ccc(C(F)(F)F)cn2)o1	–	inconclusive: 25.1 µM [inhibitor, single point]
O=C(Cn1c(=O)c2cccn2c2ccc(F)cc21)NCc1cccc(Cl)c1	–	inconclusive: 22.4 µM [inhibitor, partial curve, poor fit]
CC(C)Cn1c(=O)c2ccccc2n2c(CCC(=O)O)nnc12	inactive: 14.5%	–
O=C(Nc1ccncc1)C1=NO[C@@H]2CN(CCc3ccccc3)C[C@H]12	inactive: -18.1% [at 86.2 µM]	–
COc1cc(/C=C/C(=O)OCC(=O)NC2CC2)cc(OC)c1OC	–	inconclusive: 39.8 µM [inhibitor, single point]
CCOc1ccccc1C(=O)N1CCc2cn(C)c3cccc(c23)C1	–	inconclusive: 25.1 µM [inhibitor, single point]
O=C1Nc2ccc(-c3ccco3)cc2C(=O)N2CCN(C(=O)c3ccccc3)C[C@H]12	–	active: 35.5 µM
Cn1cccc1C(=O)N1CCc2nc3cc[nH]n3c(=O)c2C1	–	active: 31.6 µM
CCCCn1c(=O)[nH]c(=O)c2c1nc(-c1cccc(OCC)c1OC)n2CCOC	inactive: -7.04%	–
Cc1cn2nc(C(=O)NC3CCc4ccccc43)cc2c(N2CCCC2)n1 (stereo unspecified)	–	active: 14.1 µM
Cc1cc(C)c2nc(SCC(=O)N3CCCC3)cc(C)c2c1	inactive: 15.4%	–
COc1ccc(CN(C)Cc2cc(=O)oc3ccc(C)cc23)cc1	inactive: 4.83%	–
CCCCCCOc1ccc(CNCCCOCC)cc1	inactive: -7.29%	–
Cc1ccc(C)c(CS(=O)CCC(=O)Nc2ccccc2)c1 (stereo unspecified)	inactive: 14.6%	–
C/C(=N/OCc1ccc(C(N)=O)cc1)c1cc2ccccc2o1	inactive: -6.13%	–
CCN(CC)CCn1c(N)c(S(=O)(=O)c2ccccc2)c2nc3ccccc3nc21	–	inconclusive: 28.2 µM [inhibitor, partial curve, poor fit]
Cc1ccc(-c2cc(C(=O)NC(C)C3CC3)c3ccccc3n2)o1 (stereo unspecified)	–	inconclusive: 22.4 µM [inhibitor, partial curve, poor fit]
CCC(=O)N1CCCCC1c1nc(-c2ccncc2)n[nH]1 (stereo unspecified)	inactive: -1.65%	–
CN1[C@@H](CCC(=O)N2CCC(O)CC2)CNC(=O)[C@@H]2[C@H]1CCN2Cc1nc2ccccc2n1C	–	inconclusive: 20 µM [inhibitor, partial curve]

SMILES	activity change, negative = inhibition	Potency
C/C=C(\C)C(=O)OC1Cc2c(ccc3ccc(=O)oc23)OC1(C)C (stereo unspecified)	–	inconclusive: 28.2 µM [inhibitor, partial curve, poor fit]
CCC(C(=O)NCc1cc2c(cc1OC)CCC2)n1cccn1 (stereo unspecified)	–	inconclusive: 31.6 µM [inhibitor, partial curve, poor fit]
O=C(C1CCN(c2cnn(CC3CC3)c(=O)c2)C1)N1CCc2ccccc2C1 (stereo unspecified)	inactive: 13.2%	–
Cc1ccc(S(=O)(=O)Nc2nc3c(s2)C[C@@H]2[C@](C)(CO)[C@H](O)CC[C@@]2(C)[C@@H]3CC(=O)O)cc1	–	inconclusive: 22.4 µM [inhibitor, partial curve, poor fit]
Cc1ccccc1CS(=O)Cc1c(F)cccc1Cl (stereo unspecified)	inactive: -3.82%	–
COC1CN(c2cccc(F)c2)C12CCN(S(=O)(=O)Cc1ccccc1F)CC2 (stereo unspecified)	–	inconclusive: 35.5 µM [inhibitor, single point]
O=C(CC1C(=O)NCCN1Cc1ccc(-c2ccccc2)cc1)NCc1ccco1 (stereo unspecified)	–	active: 25.1 µM
Cc1cccc(C)c1NC(=O)CSc1nc(-c2cccs2)cc(C(F)(F)F)n1	–	inconclusive: 35.5 µM [inhibitor, single point]
O=C1Cc2cc(-c3csc(NC4CC4)n3)ccc2N1	inactive: -32.8%	–
CC(C)OCCCNc1nc2c(S(=O)(=O)c3ccc(Br)cc3)nnn2c2ccccc12	–	inconclusive: 89.1 µM [inhibitor, partial curve, poor fit]
COC(=O)c1cc(NC(=O)c2ccc(OC(F)F)cc2)c(F)cc1F	inactive: -12.5%	–
Cc1ccc(-c2c(CN3CCN(c4cccc(C)c4C)CC3)csc2C)cc1	–	inconclusive: 44.7 µM [inhibitor, single point]
CCc1ccc2c(CN(C)CCOc3ccccc3C)cc(=O)oc2c1	inactive: -6.68%	–
O=C(c1cc(F)cc(F)c1)N1CCC(Oc2ncccc2C(=O)N2CCCCC2)C1 (stereo unspecified)	inactive: -16.8%	–
Cc1cccc(-c2noc([C@@H]3C[C@@H](O)CN3C3CCOCC3)n2)c1	inactive: -14.9% [at 86.2 µM]	–
CCOC(=O)CNC(=O)Nc1cc(C(=O)NCc2ccc(OC)cc2)ccc1N1CCCC1	–	inconclusive: 22.4 µM [inhibitor, partial curve, poor fit]
COc1ccccc1N1CCN([C@@H]2[C@H](O)[C@H](CO)O[C@@H]2CNC(=O)c2cccc(F)c2)CC1	–	inconclusive: 22.4 µM [inhibitor, partial curve, poor fit]
CCOc1ccc(-c2cc(C(=O)NCCCOC)c3ccccc3n2)cc1	–	inconclusive: 8.91 µM [inhibitor, partial curve, poor fit]
OC[C@H]1C[C@@H](NCc2cccnc2)[C@H](O)[C@@H]1O	–	inconclusive: 31.6 µM [inhibitor, partial curve, poor fit]
CCn1cc(C(=O)N[C@H](C(=O)NCCCO)C(C)C)c(=O)c2cc3c(cc21)OCO3	–	inconclusive: 39.8 µM [inhibitor, partial curve, poor fit]
CC(C)Cc1nnc(NC(=O)c2cc3c(s2)CCC3)s1	–	inconclusive: 17.8 µM [inhibitor, partial curve, poor fit]
CN1CCN(Cc2nnc(C3CCN(Cc4cccnc4N)CC3)n2C)CC1	–	inconclusive: 14.1 µM [inhibitor, partial curve]
O=C(CSc1nc2nc[nH]c2c(=O)[nH]1)Nc1ccc(Br)cc1	inactive: -6.04%	–
